Test results published in the supplement of paper PMC3334620.
In all, about 33,000 sequences were measured (“E-score (-0.5 to 0.5)”: median about -0.011, highest 2% from about 0.28 on). Some of the results follow.

Biological target: T1, Gcr1 (UniProt P07261)
T1 sequence: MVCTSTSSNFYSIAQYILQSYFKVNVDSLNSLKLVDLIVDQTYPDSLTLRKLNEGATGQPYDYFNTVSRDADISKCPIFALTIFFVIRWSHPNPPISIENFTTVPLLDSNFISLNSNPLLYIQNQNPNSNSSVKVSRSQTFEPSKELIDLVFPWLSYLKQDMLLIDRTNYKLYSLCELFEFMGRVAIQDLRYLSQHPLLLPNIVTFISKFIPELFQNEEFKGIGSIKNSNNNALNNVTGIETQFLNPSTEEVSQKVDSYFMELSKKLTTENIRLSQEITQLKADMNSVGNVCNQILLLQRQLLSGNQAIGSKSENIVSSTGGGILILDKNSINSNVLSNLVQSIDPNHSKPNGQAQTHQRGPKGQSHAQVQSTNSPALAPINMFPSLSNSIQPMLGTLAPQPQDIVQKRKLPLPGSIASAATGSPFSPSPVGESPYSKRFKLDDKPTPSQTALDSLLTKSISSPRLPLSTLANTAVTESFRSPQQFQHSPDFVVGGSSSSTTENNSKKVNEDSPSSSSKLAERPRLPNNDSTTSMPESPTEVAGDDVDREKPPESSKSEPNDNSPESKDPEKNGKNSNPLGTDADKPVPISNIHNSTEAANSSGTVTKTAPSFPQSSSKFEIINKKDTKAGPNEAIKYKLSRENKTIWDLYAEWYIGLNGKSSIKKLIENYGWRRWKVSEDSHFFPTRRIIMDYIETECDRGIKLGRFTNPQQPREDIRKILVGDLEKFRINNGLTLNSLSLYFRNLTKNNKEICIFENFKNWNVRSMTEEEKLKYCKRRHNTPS
Test: PBM E-score (8-mer binding enrichment) (E-score (-0.5 to 0.5)); higher = stronger / more preferred TF binding; most listed sequences are background and not binding sites
Conditions: protein concentration: 100 nM; construct: GST-full length
How it was run: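 E-scores (a modified Wilcoxon-Mann-Whitney statistic) were assigned by the Universal PBM Analysis Suite to every ungapped eight-base word pooled with its reverse complement. The input came from universal all-10-mer Agilent arrays made double-stranded by primer extension and probed with GST-tagged yeast transcription factors at about 100-200 nM. Fluorescent anti-GST detected bound protein, and masliner normalised the scans.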

Sequence | PBM E-score
CCCAGTGA | 0.0204
ATAATATC | 0.0896
CGTTGGTA | -0.0272
CCCAGTTA | 0.0016
CACATGTA | -0.0101
ACCGCCCG | -0.25
CTGTATTA | 0.188
AGTCTCAT | -0.212
TATTAGCA | 0.194
GTCACCGA | 0.065
GGATAGTA | -0.0553
CTGATTAC | 0.027
ACATGCAC | -0.0191
GACAGCCC | -0.173
CCGTAGGC | -0.271
AACCAGAC | -0.0315
CCATCTGC | 0.156
GCCAAATA | 0.0694
GTGGTGCA | -0.107
GCCGATCC | -0.168
CCCCATCG | 0.00426
ATACGGCC | -0.151
CGGACATA | -0.0746
GGTCGATA | -0.135
CGACTCCA | 0.0419

Sequence | PBM E-score
GAGATGAC | -0.26
GAGCATCC | 0.398
CGCAATAC | 0.108
GTGTGGTA | 0.0549
GTGCTCGA | -0.0883
AAACGCAA | -0.0505
AGTGCAAC | -0.119
GCGAGCAC | -0.124
GCTCAAAC | -0.0452
AGTCGCAT | -0.0858
ATTATGAA | 0.152
GCTTCACA | -0.0209
AATCTCAG | 0.0955
ACTTCTTG | 0.133
CTGGTGGC | 0.0573
CGCTAGTA | 0.00429
GATGTCGC | 0.0876
GATTGGGA | 0.103
CTCATACC | 0.0158
AAACGTCC | -0.0501
CCGCCCCG | 0.243
ATAAAATA | 0.236
CGTTTTCA | -0.0253
GTGTTCGA | -0.0345
GCGGCTAC | 0.155

Sequence | PBM E-score
CGTCTACC | 0.0358
ACTGCCTG | -0.0454
ACGTGAAT | -0.0556
AACGTACG | -0.19
CGCTCACG | 0.0795
AAGTAGAT | 0.204
ACGATGCG | 0.0696
CGTGAATC | 0.0163
GGTCCAGA | -0.0324
ATCTTGAC | -0.00526
AATTGGCA | 0.0395
AGGGGTTC | 0.0309
CCAGTACA | 0.061
GAACGGTA | -0.359
AGGTGGAC | -0.29
GTTCCGCA | 0.16
AAATTAGT | 0.193
AAAAGCCG | -0.0544
ACGCAGCC | 0.304
GAGGCAGA | -0.153
CAATTAAC | 0.0449
CCCGCCGG | 0.0392
ACGTAGTC | -0.247
CCGCGCAC | 0.11
AATCAAAA | 0.00059

Sequence | PBM E-score
AGCCGTAT | -0.0395
GACCGGCC | -0.105
ATTTTGCA | -0.0454
CCAGTGCC | -0.0625
GCCGGCGA | 0.0912
CCTATAAA | 0.227
CGGGAAAA | -0.0339
CAGATTAG | 0.0596
TAACTTCA | 0.0443
CTGTTGTA | 0.149
AAAGAACA | -0.0499
GGGAGCCC | 0.226
AACATTTA | 0.00541
AGCCATGA | -0.0623
AGCGGAAG | 0.262
AGAGATAT | -0.065
AGTGAAGA | 0.084
GAGTGCAC | -0.225
AATTTTCC | -0.0622
GACAACAA | -0.0383
ATGACATA | 0.127
CCGACCGG | -0.228
CGATGCAA | -0.00404
ATTTGAGC | 0.044
ACAGCCCA | -0.203

Sequence | PBM E-score
CATAGGTA | -0.16
ATCGCTCA | -0.22
ATTCGATG | -0.224
GTAGCGTA | -0.035
CAAGACGA | -0.126
ACGTTGAT | -0.088
CTGGCGGC | 0.265
AGTGTGCA | -0.0703
GACCCCAC | 0.109
ACCTGACC | -0.114
AAAAACAC | 0.16
CAGTGCAC | -0.236
AGATGCAG | 0.0768
AATTATCT | 0.0755
CTCTTATA | 0.148
TCAATGGA | 0.134
GGTCGTGA | -0.182
ATACTTTG | 0.108
GAGAACCC | -0.162
ACCGAACT | -0.101
CTGGTTTC | 0.156
AGCACAAC | -0.239
AAGAACAC | -0.0308
AAATTGTG | -0.0559
AAGGCTGA | -0.141

Sequence | PBM E-score
CAAGACCC | -0.00554
AAGACTCG | -0.173
CACGCTGA | -0.0481
CAGCGCAG | -0.202
ACTTCATC | 0.0133
AGGTCGTG | -0.126
GAAGGTAC | -0.081
CAAAAGCC | -0.105
CGATTGTC | -0.16
CTGATCGA | -0.133
AATACAGC | -0.151
TCCCCAAA | 0.226
CCAGTGAA | 0.0919
GACGCCTA | 0.205
CCGCGGCG | 0.0505
ATCCCTCG | -0.1
AGGTAATA | 0.0421
GTGGCCCA | -0.239
AGGCCACA | -0.0873
CAATGATA | -0.0969
AAAGCCTT | -0.175
CTGCATAA | 0.163
AGTTCACC | 0.108
GAGGCCAC | 0.146
CGTGATAA | 0.144

Sequence | PBM E-score
CCTCACAG | -0.035
GTTTGGTA | 0.108
ATTCTTCG | -0.0525
AGATCGTC | -0.0739
ACCAACTG | 0.0244
TATCGCGA | 0.0936
GACGAGGA | 0.0795
ACAAGGTG | 0.0691
CTCTGGTA | 0.0394
AGCCGTGG | -0.108
AGAAGCAG | 0.174
CATAGTGG | 0.135
ATGATGAA | 0.11
CACATCCC | 0.0123
GGCGATAA | -0.062
GACATTAC | 0.102
AGGCCGAA | -0.131
ACCCAGCG | -0.188
AAGGGATT | -0.132
ACTGAGGA | -0.0737
AAAGAGGT | 0.028
ACCACTAT | 0.356
